This passage reports relative cell viability results from the supplement of paper PMC10670038.

± gives the standard deviation of the averaged measurements. Most of the lowest values are listed elsewhere, so they are rarer here than in the full data.

In this assay the test system is TE10. Put plainly: relative cell viability vs DMSO, compound + 0.2 uM CuET (fraction); TE10 is an esophageal squamous carcinoma line; higher = less cytotoxic. The following applies: 2 µM; co-treatment: CuET (bis(diethyldithiocarbamate)copper) 0.2 uM; 48 h. How it is done:
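TE10 ESCC cells (1,000/well, 384-well plates) were treated with Selleck bioactive library compounds at 2 uM combined with 0.2 uM CuET (copper diethyldithiocarbamate) for 48 h. Viability was read by CellTiter-Glo and expressed relative to DMSO wells. Two technical replicates (A, B).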
Turning to `COC(=O)C(CCCN=C(N)N)NS(=O)(=O)c1ccc(C)cc1` (stereo not given), the relative cell viability was 1.06 ± 0.066.
On to `Cc1nc2c(-c3cnc(N)nc3)nc(N3CCOCC3)nc2n1C(C)C`, for which the relative cell viability worked out at 0.6108 ± 0.0027.
On to `CN1C2CCC1CC(OC(=O)C(O)c1ccccc1)C2` (stereo not given) [Homatropine Bromide], for which the relative cell viability turned out to be 1.25 ± 0.21.
With `Cc1ccc(C(=O)NCCCCCC(=O)Nc2ccccc2N)cc1`, the relative cell viability amounted to 0.856 ± 0.019.
Then `Cc1ccccc1-n1c(Cn2nc(-c3cccc(O)c3)c3c(N)ncnc32)nc2cccc(C)c2c1=O`, with 1.06 ± 0.084.
